# Reference: the supplement of paper PMC8728848
# This is one part of the list.
# B1: Clone730PsrP (Streptococcus pneumoniae) (protein)
# chain: MDHHHHHHHHHHASENLYFQGAMVVGSQTAAATEATAKKVEEDRKKPASDYVASVTNVNLQSYAKRRKRSVDSIEQLLASIKNAAVFSGNTIVNGAPAINASLNIAKSETKVYTGEGVDSVYRVPIYYKLKVTNDGSKLTFTYTVTYVNPKTNDLGNISSMRPGYSIYNSGTSTQTMLTLGSDLGKPSGVKNYITDKNGRQVLSYNTSTMTTQGSGYTWGNGAQMNGFFAKKGYGLTSSWTVPITGTDTSFTFTPYAARTDRIGINYFNGGGKVVESSTT
# Columns and labels:
# [1] = biological target: Neu5Gc(a2-8)Neu5Gc(a2-6)Gal(b1-4)GlcNAc; assay: glycan array binding signal (z-score within array); higher = stronger binding; conditions: glycan notation: IUPAC condensed, linker removed
# Method in brief: (§1)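 From the Consortium for Functional Glycomics database, 3228 arrays were curated, keeping only those whose protein sequence was available. Binding is given as a within-array Z-score averaged across arrays sharing a protein sequence and across linkers. Negative Z-scores can be read as non-binding.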
# [2] = biological target: Neu5Gc(b2-6)Gal(b1-4)GlcNAc; assay: as above; conditions: glycan notation: IUPAC condensed, linker removed
# Method in brief: as §1
binder,measurement,setting,value
B1,glycan array binding signal (z-score),[1],-0.41
same,glycan array binding signal (z-score),[2],0.052
